{
  "source": "PubChem BioAssay AID602332",
  "about": "(National Center for Advancing Translational Sciences (NCATS), 2012)",
  "note": "Where “and” joins values, the source holds several entries; their conditions need not be identical. Equal entries are not always repeated. Screen size: about 420,000 compounds; about 75 (0.02%) were called active. The inconclusive results got no clear call from the source; some entries with a clear call stand among them for comparison. Calls come from the whole dose curve; as a rule, active = well fitted activation curve with a large enough effect; inconclusive = small, poorly fitted or top-dose-only effect; inactive = no such curve, though single readings can be large or run the other way. Potencies of inconclusive entries are doubtful fits and often do not repeat. Potency is the fitted concentration of half-maximal effect; tags give direction and shape of the fitted curve.",
  "data": [
    {"test": "qHTS for Inducers of the Endoplasmic Reticulum Stress Response (ERSR) in Human Glioma: qHTS; note: nearly all actives have a fitted effect of over 35% in size; for activation: % of control where 0% means no effect", "conditions": "U87-MG GRP78 promoter luciferase reporter, 16 h; activation: hits give high values", "method_in_brief": "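ERSR induction read as luciferase luminescence (Bright-Glo, 10 min at room temperature) in stably transfected human U87-MG glioma cells exposed to compounds for 16 h, using GRP78 as sensor.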", "values": [
      {"smiles": "Cc1ccc(C(=O)/C=C/c2ccccc2)o1", "Potency": "inconclusive: 28.2 µM [activator, single point]"},
      {"smiles": "CCCn1nnnc1SCC(=O)Nc1sc(C)c(C)c1C#N", "activation": "inactive: -2.88%"},
      {"smiles": "COc1ccc(Nc2sc(C(=O)c3ccc(Cl)cc3)c(N)c2C(=O)Nc2ccccc2OC)cc1", "Potency": "inconclusive: 25.1 µM [activator, full curve, poor fit]"},
      {"smiles": "COc1ccc(C2CC(c3ccc(Br)cc3)=NN2C(=O)CN2CCCC2)cc1", "note": "(stereo not drawn)", "activation": "inactive: -5.32%"},
      {"smiles": "O=C(NCCc1ccccc1)c1ccc(S(=O)(=O)N2CCCCC2)cc1", "activation": "inactive: 0.0372%"},
      {"smiles": "CCCCCCCCN1[C@@H](CC(=O)O)c2ccc(C(F)(F)F)cc2S1(=O)=O", "Potency": "inconclusive: 50.1 µM [activator, single point]"},
      {"smiles": "O=c1c2ccccc2nc(/C=C/c2cccnc2)n1CCc1ccccc1", "activation": "inactive: -7.17%"},
      {"smiles": "C/C=C\\C(=O)Nc1cccc(C2=NOC3(C2)C[C@H](C(N)=O)N(C(=O)/C=C/CC)C3)c1", "note": "(stereo partly drawn)", "activation": "inactive: -3.68%"},
      {"smiles": "N=C1C(c2nc3ccccc3s2)=C(O)CN1NC(=O)c1ccc([N+](=O)[O-])cc1", "Potency": "inconclusive: 39.8 µM [activator, partial curve, poor fit]"},
      {"smiles": "O=C(Nc1ccc([N+](=O)[O-])cc1)Nc1ccc2c(c1)OCCO2", "Potency": "inconclusive: 2.24 µM [activator, full curve, poor fit]"},
      {"smiles": "COc1ccc(Cc2c(-c3ccco3)nc3ccc(Br)cn23)c(C)c1", "activation": "inactive: -11%"},
      {"smiles": "COc1ccc2[nH]c3c(C)c4ccncc4c(C)c3c2c1", "Potency": "inconclusive: 7.94 µM [activator, partial curve, poor fit]"},
      {"smiles": "CN1C2CCC1CC(N(CCc1ccccc1)C(=O)c1ccc(Cl)cc1)C2", "note": "(stereo not drawn)", "activation": "inactive: 1.63%"},
      {"smiles": "O=C1/C(=C/C=C/c2ccccc2)Oc2c1ccc(O)c2CN1CCN(CCO)CC1", "Potency": "inconclusive: 44.7 µM [activator, partial curve, poor fit]"},
      {"smiles": "Cc1ccc(N2CC(O)CSC2=Nc2ccccc2)cc1", "note": "(stereo not drawn)", "Potency": "inconclusive: 39.8 µM [activator, partial curve]"},
      {"smiles": "Cn1c(=O)c([N+](=O)[O-])c(-n2cnc3ccccc32)c2ccccc21", "Potency": "inconclusive: 25.1 µM [activator, single point]"},
      {"smiles": "O=C(c1ccc(-c2cccc(Cl)c2Cl)o1)N1CCOCC1", "activation": "inactive: -2.19%"},
      {"smiles": "O=C(O)c1cc(NN=C2CCN(Cc3ccccc3)CC2)ccc1Cl", "Potency": "inconclusive: 11.2 µM [activator, single point]"},
      {"smiles": "O=C(CCl)Nc1ccc(S(=O)(=O)NC2=NCCCCC2)cc1", "Potency": "inconclusive: 20 µM [activator, single point]"},
      {"smiles": "Cc1csc(NC(=O)NC2(C(F)(F)F)Oc3ccccc3O2)n1", "Potency": "inconclusive: 20 µM [activator, single point]"},
      {"smiles": "O=C(/C=C/c1ccccc1)c1ccccc1", "Potency": "inconclusive: 44.7 µM [activator, partial curve, poor fit]"},
      {"smiles": "COc1ccc2c(CC(=O)OCC(=O)Nc3cc(C)c(C)cc3[N+](=O)[O-])coc2c1", "activation": "inactive: 0.0445%"},
      {"smiles": "Cc1c(C(N)=O)c(-c2ccccc2)nn1-c1ccccc1", "activation": "inactive: 1.63%"},
      {"smiles": "O=C(c1cccc(NC2=NC3CS(=O)(=O)CC3S2)c1)N1CCN(c2cccc(Cl)c2)CC1", "note": "(stereo not drawn)", "Potency": "inconclusive: 28.2 µM [activator, single point]"},
      {"smiles": "Nc1nc(CN2CCC(Cc3ccccc3)CC2)nc(Nc2ccccc2)n1", "activation": "inactive: -9.19%"},
      {"smiles": "CCOC(=O)c1ccc(N2C(=O)c3[nH]nc(-c4ccccc4)c3C2c2ccc(CC)cc2)cc1", "note": "(stereo not drawn)", "Potency": "inconclusive: 15.8 µM [activator, full curve, poor fit]"},
      {"smiles": "CCC(CC)c1nnc(NC(=O)c2ccc3ccccc3n2)s1", "Potency": "inconclusive: 50.1 µM [activator, single point]"},
      {"smiles": "CCOC(=O)C1CCCCN1Cc1ccc(-c2ccccc2)cc1", "note": "(stereo not drawn)", "activation": "inactive: 1%"},
      {"smiles": "O=Nc1c(-c2c(O)[nH]c3ccccc23)[nH]c2ccccc12", "Potency": "inconclusive: 1.17 µM [activator, partial curve, poor fit]"},
      {"smiles": "CCc1cccc2sc(N3CCN(C(=O)c4ccc([N+](=O)[O-])o4)CC3)nc12", "Potency": "inconclusive: 44.7 µM [activator, partial curve, poor fit]"},
      {"smiles": "CCOC(=O)CC(NC(=O)CCc1c(C)nc2c(c(C)nn2-c2ccc(C)c(C)c2)c1C)c1ccc(C)cc1", "note": "(stereo not drawn)", "activation": "inactive: 2.82%"},
      {"smiles": "O=C(Nc1ccccc1)O/N=C/c1ccncc1", "Potency": "inconclusive: 35.5 µM [activator, partial curve, poor fit]"},
      {"smiles": "Clc1cccc(/C=N/Nc2ncnc3ccccc23)c1", "Potency": "inconclusive: 2.51 µM [activator, partial curve, poor fit]"},
      {"smiles": "CN(Cc1nccn1C)C(=O)c1ccc2nc(Cc3ccccc3F)oc2c1", "Potency": "inconclusive: 2.24 µM [activator, full curve, poor fit]"},
      {"smiles": "Cc1nc2c(-c3ccccc3)cnn2c(N2CCOCC2)c1C", "Potency": "inconclusive: 31.6 µM [activator, single point]"},
      {"smiles": "CCOC(=O)c1ccc(-c2ccc3ncnc(NCc4csc(C)n4)c3c2)o1", "Potency": "inconclusive: 10 µM [activator, partial curve, poor fit]"},
      {"smiles": "CCc1ccc(NC(=O)CS(=O)CC(=O)Nc2ccc(-n3cnnn3)c(C)c2)cc1", "note": "(stereo not drawn)", "activation": "inactive: -0.056%"},
      {"smiles": "CCCC(/C=C/c1ccc(OC(C)=O)cc1)=C1/c2ccccc2C(=O)N1c1ccccc1", "Potency": "inconclusive: 44.7 µM [activator, partial curve, poor fit]"},
      {"smiles": "COc1cc(OC)c(OC)cc1/C=C1/Cc2ccccc2C1=O", "activation": "inactive: -2.59%"},
      {"smiles": "COc1ccc(-c2cc(C)no2)cc1S(=O)(=O)N1CCOc2ccccc21", "activation": "inactive: -1.47% and inactive: -3.21%"},
      {"smiles": "CCc1ccc(NC(=O)NC2CCCCCCC2)cc1", "Potency": "inconclusive: 44.7 µM [activator, partial curve, poor fit]"},
      {"smiles": "O=S(=O)(c1ccc(Cl)cc1)N1CCC(c2nc3ccccc3[nH]2)CC1", "Potency": "inconclusive: 28.2 µM [activator, single point]"},
      {"smiles": "COc1ccc(CNC(=O)/C(C#N)=C/c2cccc(OC)c2OC)cc1", "Potency": "inconclusive: 50.1 µM [activator, single point]"},
      {"smiles": "CCOC(=S)N/C(=N\\S(=O)(=O)c1ccccc1)c1ccccc1", "activation": "inactive: -4.02%"},
      {"smiles": "Nc1nnc(-c2ccc(Cl)cc2)o1", "Potency": "inconclusive: 31.6 µM [activator, single point]"},
      {"smiles": "O=C(c1ccoc1)N1CCC2(CC1)Oc1ccc(Cl)cc1C(=O)C21CC(c2ccc(Cl)cc2)=NO1", "note": "(stereo not drawn)", "Potency": "inconclusive: 28.2 µM [activator, single point]"},
      {"smiles": "CCOc1ccc(S(=O)(=O)Nc2cccc(C(=O)NCC3(N4CCCCC4)CCCCC3)c2)cc1", "Potency": "active: 15.8 µM"},
      {"smiles": "O=Cc1cc(OCc2ccccc2)ccc1[B-](F)(F)F", "Potency": "inconclusive: 50.1 µM [activator, single point]"},
      {"smiles": "COC(=O)Nc1nc2c(C)cccc2s1", "Potency": "inconclusive: 12.6 µM [activator, single point]"},
      {"smiles": "COc1ccc(NC(=O)Nc2ccc(F)c(Cl)c2)cc1", "activation": "inactive: 7.16%"},
      {"smiles": "COc1ccc(CNC(=O)c2cc(COc3c(F)cccc3F)on2)cc1OC", "activation": "inactive: 0.972%"},
      {"smiles": "Cc1ccc(OCc2cc(C(=O)N3CCN(C4CCCCC4)CC3)no2)cc1C", "Potency": "inconclusive: 12.6 µM [activator, single point]"},
      {"smiles": "CCC(C(=O)OC)n1c(-c2ccccc2)nc2ccccc2c1=O", "note": "(stereo not drawn)", "activation": "inactive: -3.36%"},
      {"smiles": "COc1ccc(Nc2nc(N)nc(CSc3nc(C)cc(C)n3)n2)cc1", "activation": "inactive: -5.08%"},
      {"smiles": "Cc1ccc(C2C=C(c3ccccc3)Nc3nc(NS(=O)(=O)c4ccccc4)nn32)cc1", "note": "(stereo not drawn)", "activation": "inactive: -2.85%"},
      {"smiles": "COc1ccc(-c2oc3ncn4nc(COc5ccccc5)nc4c3c2-c2ccc(OC)cc2)cc1", "activation": "inactive: -4.22%"},
      {"smiles": "Oc1ccccc1-c1cc(-c2ccco2)[nH]n1", "Potency": "inconclusive: 7.08 µM [activator, partial curve, poor fit]"},
      {"smiles": "CC(C)(C)NC(=O)C(c1ccc(Cl)cc1)N(Cc1ccco1)C(=O)CCl", "note": "(stereo not drawn)", "activation": "inactive: -1.79%"},
      {"smiles": "COc1ccnc(CSC(N)=Nc2ccc(F)cc2)c1", "Potency": "inconclusive: 5.62 µM [activator, full curve, poor fit]"},
      {"smiles": "O=C(O)/C=C/c1ccc(S(=O)(=O)Nc2ccc3[nH]c(=O)[nH]c3c2)cc1", "activation": "inactive: -2.25%"},
      {"smiles": "CCCOc1ccc(C(=O)NNC(=S)NC(=O)c2ccco2)cc1", "Potency": "inconclusive: 44.7 µM [activator, single point]"},
      {"smiles": "Cc1csc(SCC(=O)NCc2ccc3c(c2)OCO3)n1", "Potency": "inconclusive: 20 µM [activator, single point]"},
      {"smiles": "Cc1ccc(N=CC=C2OC(C)(C)C(C)(C)O2)cc1", "Potency": "inconclusive: 50.1 µM [activator, partial curve, poor fit]"},
      {"smiles": "Cc1ccc(-c2nnc(N3CCC(C)CC3)c3ccccc23)cc1C", "Potency": "inconclusive: 50.1 µM [activator, single point]"},
      {"smiles": "NS(=O)(=O)c1ccc(NC(=O)COc2ccc(C(=O)c3ccc(F)cc3)cc2)cc1", "activation": "inactive: -4.65%"},
      {"smiles": "CCOC(=O)C1CCN(Cc2ccc(F)c(F)c2)CC1", "Potency": "inconclusive: 5.01 µM [activator, single point]"},
      {"smiles": "O=C(NCc1nnnn1-c1ccc(F)cc1)c1ccc([N+](=O)[O-])o1", "Potency": "inconclusive: 11.2 µM [activator, partial curve, poor fit]"},
      {"smiles": "CC1CCN(C(=O)C2CC(c3ccc(F)cc3)=NO2)CC1", "note": "(stereo not drawn)", "Potency": "inconclusive: 11.2 µM [activator, partial curve, poor fit]"}
    ]}
  ]
}
